# Reference: the supplement of paper PMC3334620
# The full ranking holds about 33,000 sequences; the median of “E-score (-0.5 to 0.5)” is about -0.056, and the highest 2% start at about 0.38. The list shows a part of the results.
# Target: Stb4 (UniProt P50104)
# Assay: PBM E-score (8-mer binding enrichment) (E-score (-0.5 to 0.5)); higher = stronger / more preferred TF binding; most listed sequences are background and not binding sites
# Details: protein concentration: 200 nM; construct: GST-DNA-binding domain
# Method in brief: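 Universal all-10-mer Agilent arrays, fresh or stripped once, were converted to double-stranded form by primer extension. GST-tagged yeast transcription factors from PURExpress in vitro transcription/translation, full-length or DNA-binding domain only, were applied at about 100-200 nM and detected with fluorescent anti-GST. After masliner normalisation, the Universal PBM Analysis Suite scored each ungapped eight-base word together with its reverse complement by E-score.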
row,Sequence,PBM E-score
1,CCTCTAGC,-0.336
2,ACGCCATA,-0.131
3,CCGCATGA,-0.00551
4,AAGCCGCG,0.184
5,CCCCGTCC,0.0876
6,ACTGCCAG,-0.185
7,GGTCTTAA,-0.127
8,AACACGTG,-0.0809
9,CTTTGTAC,-0.0949
10,ATACCCAT,-0.105
11,TCTTGAAA,-0.0507
12,CTAGGCCA,-0.106
13,CTAGCATC,0.0741
14,ACAACTGT,-0.209
15,AAGAGCTC,-0.0564
16,CGGGACGC,0.304
17,ACCCGATC,0.333
18,AAGTGCAG,-0.212
19,CACCTAGG,-0.179
20,AATTTGGG,-0.136
21,ACTGCGAG,-0.261
22,AGTGCCTA,-0.176
23,AACTCGAC,-0.00661
24,AGAGCGCA,-0.281
25,ATCCCAAT,-0.193

row,Sequence,PBM E-score
1,AAGAGGGT,-0.331
2,AGTCAATC,-0.156
3,GAGCATTA,-0.133
4,AGGAACGC,-0.097
5,CTTTCGGA,0.432
6,ATCTCCTA,-0.339
7,CTGAGCCC,-0.233
8,CTCTCTAA,-0.259
9,ACTACACC,0.0591
10,CAATAGAA,-0.282
11,AGGTCTCC,-0.15
12,ACTACGGG,0.173
13,GCCTGAGC,-0.248
14,ACGTGCAC,-0.119
15,ATGGGGGG,-0.189
16,GTGGCAAA,-0.0689
17,GATCTTAC,0.133
18,GATATTAA,0.228
19,AGCGAGCG,-0.153
20,GACACGTC,0.0446
21,CTTCAAGA,-0.115
22,AACTTTAG,-0.159
23,AGGCGGAC,0.119
24,CGACATGC,0.0348
25,AGTTACGA,-0.00644

row,Sequence,PBM E-score
1,CGAGGCGA,-0.00218
2,AGCCCTCC,-0.0499
3,AATACACG,-0.107
4,GCTGAAGC,0.0696
5,AAGCTCAA,-0.297
6,CTCTCTTC,-0.067
7,AGTAATTG,-0.131
8,GTTAAGGA,0.0018
9,ACTGGGCT,-0.0497
10,AGACTGAC,-0.11
11,CTTGCCTA,-0.286
12,ATGTATAG,-0.189
13,ATTGCCTA,-0.143
14,CGCGTCCC,0.147
15,CTGCGTCA,-0.35
16,CACCGGCA,0.198
17,AGTTCGTC,-0.167
18,AGGCTTCG,0.206
19,GATCTTAA,-0.124
20,ACGCTCCG,0.204
21,ACGAGATC,-0.0355
22,GCACGCGC,-0.0844
23,CGACCGCA,0.109
24,AATGACTA,-0.259
25,AAGATGAT,-0.317

row,Sequence,PBM E-score
1,AGCTGTAG,-0.0425
2,ATGTGGGG,-0.227
3,GGTAGAAC,-0.125
4,GCCCCCAA,-0.429
5,ACATTGGT,-0.0611
6,GAGGTGGC,-0.137
7,ACTATAAG,-0.208
8,GATTCATA,-0.00878
9,CAAAGAGG,-0.158
10,CAATAGCC,-0.0503
11,CTAGGAGC,-0.0318
12,AATCGACT,-0.183
13,CCTAGCAA,-0.197
14,TGGTTCAA,-0.014
15,CCTCGCTC,0.0501
16,ACGTGACT,-0.27
17,GACACGAC,-0.247
18,CTCCTATA,-0.399
19,ATCATATA,-0.0581
20,CCACAATC,0.028
21,AGTCCGGC,0.0945
22,GAACTGAA,0.0351
23,GCACTTAC,0.0807
24,TAAGGACA,-0.159
25,CGTGCCTC,0.0554

row,Sequence,PBM E-score
1,CAGGAAGA,-0.132
2,ACGTCTGA,-0.124
3,ACATAGAG,-0.166
4,ACGGACCA,0.167
5,ACAATGCT,-0.251
6,CTGACACC,0.0587
7,TGGATTAA,-0.134
8,CGCTGACA,-0.0536
9,GGCTTGCA,-0.0343
10,AGCCGAAA,0.425
11,CTCCCGTA,0.106
12,GTGCTAAC,0.0586
13,AATTTACC,0.182
14,GAAAGAAA,0.071
15,CAGTGACC,-0.216
16,CCTGCAAA,-0.27
17,GCTACTGA,-0.0941
18,GTAGGGTA,-0.0477
19,AACGGTAA,0.104
20,ACTCCCGA,0.411
21,GTAAGCAC,-0.144
22,TACAAGAA,-0.0733
23,CCGGGCTA,0.254
24,CTAGTCAC,-0.119
25,CAGGGTAG,-0.151

row,Sequence,PBM E-score
1,AGTCTACG,-0.0178
2,AGCAACAC,-0.0488
3,GGTCCACC,-0.0103
4,GTCCAGAC,-0.365
5,AGCTATCA,-0.17
6,AATCGTAG,-0.298
7,CGTCCCAC,-0.0761
8,CTAAGGCA,-0.154
9,ACACGCGC,0.00442
10,CTCGAATA,0.0163
11,GAGTTGCA,-0.0614
12,CCGCACAA,0.136
13,ATGCACCG,0.133
14,AAAGAATT,-0.0563
15,CTGCCCAA,-0.0865
16,CACAGGTG,-0.266
17,GTTGACAA,-0.00399
18,AACTACCC,0.116
19,ATACGTGC,-0.02
20,AAGGTAGA,-0.113
21,AGATTTAA,-0.0119
22,ACCCGCTA,0.151
23,CGACACCC,0.107
24,AGAAGTAA,-0.226
25,ATTCTGTA,0.0857

row,Sequence,PBM E-score
1,AAATTATG,-0.0977
2,CATGTCCC,0.0202
3,CGCATCTA,0.0075
4,AAGTGGTC,-0.00068
5,CTGCCATC,-0.0272
6,GAGGTACC,0.0627
7,AGTTTGGG,-0.172
8,AGCGGATC,0.255
9,AATCAGTG,-0.0707
10,AGCAAAAC,-0.119
11,AATGATGC,0.0244
12,CCGTTAAG,0.0109
13,GATCAGCC,-0.0153
14,TGCAATAA,-0.179
15,ATTGACGG,0.0795
16,CGGTAGAA,0.19
17,CGGATTGA,0.281
18,AACGTGAC,-0.104
19,ATGCTTTA,-0.0981
20,TCCTGCGA,0.0562
21,GGCGCGCA,0.0402
22,CGGAGGTA,0.237
